Data reported in article PMC9513894.
Results are given in words; binding and its absence hold for the method and conditions named. In cells and extracts the contact can be indirect. Tags and fused reporters may be left off the sequences shown.

Sequences of proteins named here, by UniProt entry; tags and fusion partners are left off.
UniProt P54578: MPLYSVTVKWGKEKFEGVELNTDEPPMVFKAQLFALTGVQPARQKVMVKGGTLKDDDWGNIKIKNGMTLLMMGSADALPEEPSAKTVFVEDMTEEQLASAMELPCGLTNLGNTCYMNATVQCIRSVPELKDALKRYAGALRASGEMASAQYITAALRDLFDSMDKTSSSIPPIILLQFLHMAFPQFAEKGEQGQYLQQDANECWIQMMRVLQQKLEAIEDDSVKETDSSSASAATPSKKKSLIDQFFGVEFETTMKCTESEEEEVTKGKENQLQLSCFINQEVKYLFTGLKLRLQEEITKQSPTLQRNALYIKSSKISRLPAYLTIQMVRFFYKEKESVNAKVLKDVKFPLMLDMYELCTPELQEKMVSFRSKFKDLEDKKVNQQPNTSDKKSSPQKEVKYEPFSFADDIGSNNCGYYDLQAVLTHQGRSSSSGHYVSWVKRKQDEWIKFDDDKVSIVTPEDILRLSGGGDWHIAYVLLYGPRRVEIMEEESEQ
UniProt P45974: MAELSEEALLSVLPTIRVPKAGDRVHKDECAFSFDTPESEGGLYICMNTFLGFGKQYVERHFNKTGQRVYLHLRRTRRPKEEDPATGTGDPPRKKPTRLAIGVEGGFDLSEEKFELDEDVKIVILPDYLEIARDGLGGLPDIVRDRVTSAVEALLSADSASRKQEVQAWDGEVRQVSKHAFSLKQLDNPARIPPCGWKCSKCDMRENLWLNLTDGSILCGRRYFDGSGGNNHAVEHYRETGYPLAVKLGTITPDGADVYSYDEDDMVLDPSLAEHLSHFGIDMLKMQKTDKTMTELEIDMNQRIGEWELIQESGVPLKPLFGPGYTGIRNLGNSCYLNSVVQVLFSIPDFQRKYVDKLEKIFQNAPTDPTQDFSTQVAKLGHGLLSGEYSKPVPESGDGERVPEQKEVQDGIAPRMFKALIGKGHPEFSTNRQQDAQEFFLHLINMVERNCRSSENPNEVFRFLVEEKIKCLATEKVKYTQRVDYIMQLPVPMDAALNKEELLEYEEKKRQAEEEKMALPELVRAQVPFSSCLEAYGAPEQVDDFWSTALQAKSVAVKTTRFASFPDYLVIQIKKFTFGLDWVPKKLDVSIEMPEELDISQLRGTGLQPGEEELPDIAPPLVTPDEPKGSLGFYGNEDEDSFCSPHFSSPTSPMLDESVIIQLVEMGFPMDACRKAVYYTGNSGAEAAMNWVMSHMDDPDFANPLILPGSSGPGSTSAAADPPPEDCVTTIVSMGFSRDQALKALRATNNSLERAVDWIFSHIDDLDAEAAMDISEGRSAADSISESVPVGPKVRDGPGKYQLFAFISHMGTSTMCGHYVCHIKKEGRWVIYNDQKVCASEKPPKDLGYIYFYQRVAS

Experiments:
Experiment in all cases: co-IP; Flag-tagged USPs and HA-HDAC7 transfected into HEK-293T cells; anti-Flag beads (4 °C, 4 h; washed 4 times with NETN buffer); HA-HDAC7 detected by immunoblot
[1] = molecular target: Flag-USP14 (UniProt P54578)
[2] = molecular target: Flag-USP5 (UniProt P45974)
[3] = molecular target: T1, Flag-USP4 (UniProt Q13107)
T1 sequence: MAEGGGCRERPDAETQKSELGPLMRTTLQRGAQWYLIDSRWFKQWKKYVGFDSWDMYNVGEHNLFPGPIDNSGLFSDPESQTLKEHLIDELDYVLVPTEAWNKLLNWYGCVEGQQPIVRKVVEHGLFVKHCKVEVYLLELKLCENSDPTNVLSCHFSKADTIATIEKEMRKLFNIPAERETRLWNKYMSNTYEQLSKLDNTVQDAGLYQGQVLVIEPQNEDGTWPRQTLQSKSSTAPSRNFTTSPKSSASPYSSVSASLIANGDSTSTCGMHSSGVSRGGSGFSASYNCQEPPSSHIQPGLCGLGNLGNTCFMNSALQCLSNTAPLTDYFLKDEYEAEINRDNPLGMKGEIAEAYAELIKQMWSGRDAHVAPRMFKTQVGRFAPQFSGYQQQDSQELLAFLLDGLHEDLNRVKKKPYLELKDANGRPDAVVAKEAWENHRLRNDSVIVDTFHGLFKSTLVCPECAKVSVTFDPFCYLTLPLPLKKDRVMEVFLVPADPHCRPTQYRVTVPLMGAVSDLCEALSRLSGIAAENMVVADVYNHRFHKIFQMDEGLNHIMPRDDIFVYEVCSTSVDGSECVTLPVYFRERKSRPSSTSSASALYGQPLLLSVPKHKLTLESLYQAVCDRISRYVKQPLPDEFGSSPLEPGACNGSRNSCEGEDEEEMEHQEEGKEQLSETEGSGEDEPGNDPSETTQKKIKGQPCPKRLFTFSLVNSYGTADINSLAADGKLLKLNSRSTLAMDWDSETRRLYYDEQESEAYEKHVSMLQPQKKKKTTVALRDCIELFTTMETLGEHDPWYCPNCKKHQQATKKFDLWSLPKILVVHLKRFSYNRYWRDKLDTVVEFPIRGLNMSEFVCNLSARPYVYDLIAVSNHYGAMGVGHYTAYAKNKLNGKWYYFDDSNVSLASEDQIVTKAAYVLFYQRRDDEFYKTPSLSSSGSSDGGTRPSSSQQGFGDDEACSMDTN

Measured: binding

B1: HA-HDAC7 (histone deacetylase 7) (enzyme, UniProt Q8WUI4 1-952)
chain: MDLRVGQRPPVEPPPEPTLLALQRPQRLHHHLFLAGLQQQRSVEPMRLSMDTPMPELQVGPQEQELRQLLHKDKSKRSAVASSVVKQKLAEVILKKQQAALERTVHPNSPGIPYRTLEPLETEGATRSMLSSFLPPVPSLPSDPPEHFPLRKTVSEPNLKLRYKPKKSLERRKNPLLRKESAPPSLRRRPAETLGDSSPSSSSTPASGCSSPNDSEHGPNPILGSEALLGQRLRLQETSVAPFALPTVSLLPAITLGLPAPARADSDRRTHPTLGPRGPILGSPHTPLFLPHGLEPEAGGTLPSRLQPILLLDPSGSHAPLLTVPGLGPLPFHFAQSLMTTERLSGSGLHWPLSRTRSEPLPPSATAPPPPGPMQPRLEQLKTHVQVIKRSAKPSEKPRLRQIPSAEDLETDGGGPGQVVDDGLEHRELGHGQPEARGPAPLQQHPQVLLWEQQRLAGRLPRGSTGDTVLLPLAQGGHRPLSRAQSSPAAPASLSAPEPASQARVLSSSETPARTLPFTTGLIYDSVMLKHQCSCGDNSRHPEHAGRIQSIWSRLQERGLRSQCECLRGRKASLEELQSVHSERHVLLYGTNPLSRLKLDNGKLAGLLAQRMFVMLPCGGVGVDTDTIWNELHSSNAARWAAGSVTDLAFKVASRELKNGFAVVRPPGHHADHSTAMGFCFFNSVAIACRQLQQQSKASKILIVDWDVHHGNGTQQTFYQDPSVLYISLHRHDDGNFFPGSGAVDEVGAGSGEGFNVNVAWAGGLDPPMGDPEYLAAFRIVVMPIAREFSPDLVLVSAGFDAAEGHPAPLGGYHVSAKCFGYMTQQLMNLAGGAVVLALEGGHDLTAICDASEACVAALLGNRVDPLSEEGWKQKPNLNAIRSLEAVIRVHSKYWGCMQRLASCPDSWVPRVPGADKEEVEAVTALASLSVGILAEDRPSEQLVEEEEPMNL
no binding: all assays above
